No constants are given. Whether binding was seen depends on the method and setting. In cells and extracts the contact can be indirect. Some entries that bind do so weakly or less than the wild type. For some assays here: Where a sequence is shown, tags or fusion partners need not be part of it.
Legend:
[1] = target: T1, Flag-RNF208 stably overexpressed in MDA-MB-231 cells (human) (UniProt Q9H0X6); test: co-IP; RNF208-overexpressing MDA-MB-231 cells with or without MG132; lysates immunoprecipitated with anti-Flag antibody, blotted for phosphorylated Vimentin (S39)
T1 sequence: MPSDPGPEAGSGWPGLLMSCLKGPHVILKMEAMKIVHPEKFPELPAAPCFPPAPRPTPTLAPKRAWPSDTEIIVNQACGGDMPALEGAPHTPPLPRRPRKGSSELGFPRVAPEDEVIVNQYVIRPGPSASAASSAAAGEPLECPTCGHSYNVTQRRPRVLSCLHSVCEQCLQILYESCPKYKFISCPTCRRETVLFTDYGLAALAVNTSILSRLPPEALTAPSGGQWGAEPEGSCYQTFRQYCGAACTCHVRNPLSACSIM

The chains behind the UniProt entries cited, without tags or fusion partners. Where a name states a change or a piece, a line headed by the entry shows the natural chain unless it says otherwise.
UniProt P08670: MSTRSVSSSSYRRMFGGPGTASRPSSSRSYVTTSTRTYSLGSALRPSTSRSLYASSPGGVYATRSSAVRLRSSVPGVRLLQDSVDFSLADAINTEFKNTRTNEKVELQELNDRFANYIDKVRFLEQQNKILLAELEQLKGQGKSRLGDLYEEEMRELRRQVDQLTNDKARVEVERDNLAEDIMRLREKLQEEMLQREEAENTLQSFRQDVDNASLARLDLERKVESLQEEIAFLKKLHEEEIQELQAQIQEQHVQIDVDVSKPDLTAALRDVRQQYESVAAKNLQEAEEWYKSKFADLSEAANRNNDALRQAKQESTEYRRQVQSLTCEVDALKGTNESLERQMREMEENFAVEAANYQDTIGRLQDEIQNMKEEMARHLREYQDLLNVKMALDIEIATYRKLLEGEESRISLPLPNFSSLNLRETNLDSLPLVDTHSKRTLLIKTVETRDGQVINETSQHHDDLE

[2] = target: T2, Myc-RNF208 (RING finger protein 208), wild type (human) (UniProt Q9H0X6); test: co-IP; 293T cells cotransfected with Myc-RNF208 and Flag-Vimentin, MG132 treatment; lysates immunoprecipitated with anti-Myc antibody
T2 sequence: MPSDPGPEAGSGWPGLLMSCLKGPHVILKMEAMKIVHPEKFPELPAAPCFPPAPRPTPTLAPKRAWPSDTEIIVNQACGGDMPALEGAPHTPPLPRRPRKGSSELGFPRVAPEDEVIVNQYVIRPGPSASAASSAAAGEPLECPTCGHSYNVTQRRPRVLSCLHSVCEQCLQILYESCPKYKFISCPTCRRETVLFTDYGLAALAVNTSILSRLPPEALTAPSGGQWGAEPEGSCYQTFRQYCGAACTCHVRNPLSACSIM

[3] = target: T3, RNF208 in Hs578T cells (co-immunoprecipitation) (human) (UniProt Q9H0X6); test: co-IP; Hs578T cells; called endogenous interaction (Supplementary Fig. 6c); antibodies not told
T3 sequence: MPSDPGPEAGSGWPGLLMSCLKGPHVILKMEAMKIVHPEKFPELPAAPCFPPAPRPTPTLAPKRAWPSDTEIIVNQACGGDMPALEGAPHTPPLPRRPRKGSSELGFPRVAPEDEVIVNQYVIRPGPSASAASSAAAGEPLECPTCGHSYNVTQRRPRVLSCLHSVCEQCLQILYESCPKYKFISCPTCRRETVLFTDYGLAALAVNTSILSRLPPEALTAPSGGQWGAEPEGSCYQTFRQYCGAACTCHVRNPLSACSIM

[4] = target: Flag-Vimentin (S56A) mutant (human) (UniProt P08670); test: co-IP; 293T cells cotransfected with Myc-RNF208 and Flag-Vimentin (wild type or serine mutants), MG132 treatment; lysates immunoprecipitated with anti-Flag antibody
[5] = target: Flag-Vimentin (S39D) mutant (human) (UniProt P08670); test: as above
[6] = target: Flag-Vimentin (S73A) mutant (human) (UniProt P08670); test: as above
[7] = target: Flag-Vimentin, wild type (human) (UniProt P08670); test: as above
[8] = target: Flag-Vimentin (S83A) mutant (human) (UniProt P08670); test: as above
[9] = target: Flag-Vimentin, wild type (human) (UniProt P08670); test: co-IP; 293T cells cotransfected with wild-type RNF208 or RNF208 mutant (C143A, C167A, C186A) and Flag-Vimentin, MG132 treatment; precipitating antibody not told

With “Vimentin phosphorylated at the Ser39 residue, endogenous (from UniProt P08670 1-466)” the binding [1] was “binds”.

In the case of “Flag-Vimentin, wild type (from UniProt P08670 1-466)”, the binding [2] is reported as “binds”.

In the case of “Vimentin, endogenous in TNBC cells (from UniProt P08670 1-466)”, the binding [3] is reported as “binds”.

B1: Myc-RNF208 (RING finger protein 208), wild type (protein, UniProt Q9H0X6 1-261)
chain: MPSDPGPEAGSGWPGLLMSCLKGPHVILKMEAMKIVHPEKFPELPAAPCFPPAPRPTPTLAPKRAWPSDTEIIVNQACGGDMPALEGAPHTPPLPRRPRKGSSELGFPRVAPEDEVIVNQYVIRPGPSASAASSAAAGEPLECPTCGHSYNVTQRRPRVLSCLHSVCEQCLQILYESCPKYKFISCPTCRRETVLFTDYGLAALAVNTSILSRLPPEALTAPSGGQWGAEPEGSCYQTFRQYCGAACTCHVRNPLSACSIM
In the case of B1, the binding [4] is reported as “binds”, the binding [5] is reported as “binds” and the binding [6] is reported as “binds”. The binding [7] was “binds” and the binding [8] was “binds”.

B2: RNF208 mutant C143A (protein, UniProt Q9H0X6 1-261)
chain: MPSDPGPEAGSGWPGLLMSCLKGPHVILKMEAMKIVHPEKFPELPAAPCFPPAPRPTPTLAPKRAWPSDTEIIVNQACGGDMPALEGAPHTPPLPRRPRKGSSELGFPRVAPEDEVIVNQYVIRPGPSASAASSAAAGEPLEAPTCGHSYNVTQRRPRVLSCLHSVCEQCLQILYESCPKYKFISCPTCRRETVLFTDYGLAALAVNTSILSRLPPEALTAPSGGQWGAEPEGSCYQTFRQYCGAACTCHVRNPLSACSIM
In the case of B2, the binding [9] is reported as “no binding”.

B3: RNF208 mutant C167A (protein, UniProt Q9H0X6 1-261)
chain: MPSDPGPEAGSGWPGLLMSCLKGPHVILKMEAMKIVHPEKFPELPAAPCFPPAPRPTPTLAPKRAWPSDTEIIVNQACGGDMPALEGAPHTPPLPRRPRKGSSELGFPRVAPEDEVIVNQYVIRPGPSASAASSAAAGEPLECPTCGHSYNVTQRRPRVLSCLHSVAEQCLQILYESCPKYKFISCPTCRRETVLFTDYGLAALAVNTSILSRLPPEALTAPSGGQWGAEPEGSCYQTFRQYCGAACTCHVRNPLSACSIM
With B3 the binding [9] was “no binding”.

B4: RNF208 mutant C186A (protein, UniProt Q9H0X6 1-261)
chain: MPSDPGPEAGSGWPGLLMSCLKGPHVILKMEAMKIVHPEKFPELPAAPCFPPAPRPTPTLAPKRAWPSDTEIIVNQACGGDMPALEGAPHTPPLPRRPRKGSSELGFPRVAPEDEVIVNQYVIRPGPSASAASSAAAGEPLECPTCGHSYNVTQRRPRVLSCLHSVCEQCLQILYESCPKYKFISAPTCRRETVLFTDYGLAALAVNTSILSRLPPEALTAPSGGQWGAEPEGSCYQTFRQYCGAACTCHVRNPLSACSIM
In the case of B4, the binding [9] is reported as “no binding”.

Source: PMC6925134
